Among all 310,000 compounds or so, about 14,000 (4.5%) showed an effect of 50% or more. Effects have a minus sign here. This is one part of the list.
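Also: peak tail current of the secondary pulse compared with the same well before compound.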

Sequence of human ether-à-go-go-related gene (hERG) potassium channel (Q12809 whole entry, looked up): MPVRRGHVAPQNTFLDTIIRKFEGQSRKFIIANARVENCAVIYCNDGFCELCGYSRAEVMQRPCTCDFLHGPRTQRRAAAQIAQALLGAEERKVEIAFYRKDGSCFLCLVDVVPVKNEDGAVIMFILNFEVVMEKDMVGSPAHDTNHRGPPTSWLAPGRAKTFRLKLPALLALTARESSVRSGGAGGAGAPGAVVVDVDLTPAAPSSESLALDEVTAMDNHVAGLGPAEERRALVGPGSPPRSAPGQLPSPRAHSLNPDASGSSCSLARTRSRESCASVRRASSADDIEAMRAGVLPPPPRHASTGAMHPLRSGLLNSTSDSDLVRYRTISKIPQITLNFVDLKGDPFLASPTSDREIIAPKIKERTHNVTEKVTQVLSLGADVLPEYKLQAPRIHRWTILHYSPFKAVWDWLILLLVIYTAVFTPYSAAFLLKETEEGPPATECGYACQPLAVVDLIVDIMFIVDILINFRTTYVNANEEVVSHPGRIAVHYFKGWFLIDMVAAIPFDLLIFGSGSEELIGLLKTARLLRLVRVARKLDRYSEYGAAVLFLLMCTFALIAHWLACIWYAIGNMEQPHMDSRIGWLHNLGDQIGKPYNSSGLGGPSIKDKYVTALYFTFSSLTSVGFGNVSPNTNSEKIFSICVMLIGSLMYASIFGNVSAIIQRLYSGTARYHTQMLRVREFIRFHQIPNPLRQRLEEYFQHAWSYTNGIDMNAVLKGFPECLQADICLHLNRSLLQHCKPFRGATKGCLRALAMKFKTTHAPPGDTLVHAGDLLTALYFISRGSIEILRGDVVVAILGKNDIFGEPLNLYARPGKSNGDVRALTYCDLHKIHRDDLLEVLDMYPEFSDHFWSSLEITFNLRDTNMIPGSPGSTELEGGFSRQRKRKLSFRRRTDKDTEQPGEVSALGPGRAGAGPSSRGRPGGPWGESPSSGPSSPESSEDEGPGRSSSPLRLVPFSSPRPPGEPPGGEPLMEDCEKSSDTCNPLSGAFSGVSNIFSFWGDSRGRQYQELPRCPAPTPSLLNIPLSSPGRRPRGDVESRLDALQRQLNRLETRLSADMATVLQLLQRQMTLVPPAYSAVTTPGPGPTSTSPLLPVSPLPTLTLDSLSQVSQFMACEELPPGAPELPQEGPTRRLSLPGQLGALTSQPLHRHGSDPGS

This assay addresses human ether-à-go-go-related gene (hERG) potassium channel (human, UniProt Q12809). Put plainly: primary screen, population patch clamp on CHO cells stably expressing hERG.
On to `O=C(Nc1nnc(SCc2ccccn2)s1)C1CC(=O)N(c2ccc(F)cc2)C1` (stereo not shown), for which the “hERG current change (%, negative = inhibition) at 10uM” value is recorded as -13.3%. Then `COc1ccc(Nc2nc(N)nc(CN3CCc4ccccc4C3)n2)cc1`, with -56.4%. Consider `Cl.N/N=c1\sc2ccccc2n1-c1ccccc1`, for which the “hERG current change (%, negative = inhibition) at 10uM” value is on record as 2.94%. Then `C=CCOC(=O)C1=C(C)N(C)C(=O)NC1c1cc2c(cc1Br)OCO2` (stereo not shown), with -5.15%; and `CN1CCN(c2ccc(NS(=O)(=O)c3ccc(Cl)cc3)cn2)CC1`, with -40.2%. In the case of `CCCS(=O)c1nc(C)cc(C)c1S(C)(=O)=O` (stereo not shown) it was 11.3%; in that of `CCCCC(=O)N(Cc1ccc2c(c1)OCO2)Cc1nc2ccccc2c(=O)[nH]1`, -4.23%; in that of `Cc1ccc(N(CC(=O)NCCc2ccc(Cl)cc2)S(=O)(=O)c2c(C)noc2C)cc1`, 8.71%.

`COc1ccc(OCC(=O)N2CCC3(CC2)CC(=O)c2ccccc2O3)cc1`: the “hERG current change (%, negative = inhibition) at 10uM” value was -88.9%.

Take `Cc1ccc(C)c(NC(=O)C2CCCN(S(=O)(=O)c3c(C)noc3/C=C/N(C)C)C2)c1` (stereo not shown): the “hERG current change (%, negative = inhibition) at 10uM” value is 8.52%. As for `S=c1[nH]nc(-c2cnccn2)n1-c1ccccc1`, the “hERG current change (%, negative = inhibition) at 10uM” value turned out to be 16%.

Take `COCCN(C(=S)Nc1cccc(C)c1)C(C)c1cccs1` (stereo not shown): the “hERG current change (%, negative = inhibition) at 10uM” value is 7.09%. Then `O=C(C1=C[C@H](C2CCCCC2)C[C@H](OCc2ccc(CO)cc2)O1)N1CCN(Cc2ccc3c(c2)OCO3)CC1`, with -18.3%. `O=C(NCCCn1ccnc1)/C(=C\c1cccs1)NC(=O)c1cccs1`: the “hERG current change (%, negative = inhibition) at 10uM” value was -62%. Take `COc1ccc(Cl)cc1NC(=O)CCc1nnc2ccc(N3CCC4(CC3)OCCO4)nn12`: the “hERG current change (%, negative = inhibition) at 10uM” value is 22.8%. In the case of `Cc1nc2cc(NC(=O)Nc3ccc(Br)cc3)ccc2o1` it was 9.81%; in that of `CCOc1ccc(NC(=O)CCNS(=O)(=O)c2ccc3c(c2)oc(=O)n3C)cc1`, 13.2%. Then `O=S(=O)(c1ccccc1)c1ccc(C(F)(F)F)cn1`, with 12.7%. Then `CCCCN(C(=O)CC1CCCCC1)c1c(N)n(CC(C)C)c(=O)[nH]c1=O`, with 1.32%; and `C=CCn1c(-c2cc3c(s2)CCC(CC)C3)n[nH]c1=S` (stereo not shown), with 7.79%. For the molecule `NS(=O)(=O)c1cnccc1Nc1ccc(Cl)cc1`, the “hERG current change (%, negative = inhibition) at 10uM” value was -6.71%. For `CCOC(=O)c1ccccc1N1C(=O)CSC1=S`, the “hERG current change (%, negative = inhibition) at 10uM” value stood at 8.78%. In the case of `CN(NC1OC(=O)c2ccccc21)c1ccc(Cl)cc1[N+](=O)[O-]` (stereo not shown) it was 6.32%; in that of `COc1ccccc1N(CC(=O)NCCSc1ccccc1)S(=O)(=O)c1ccccc1`, -13.2%. In the case of `CCSc1nc(C)nc2c1oc1ccccc12` it was 12.3%; in that of `CN(Cc1ccccc1NC(=O)c1ccc(S(=O)(=O)N(C)C)cc1)C1CCCCC1`, -2.72%. In the case of `Cc1ccc2[nH]cc(S(=O)(=O)c3ccc(C(C)C)cc3)c(=O)c2c1` it was 25.5%; in that of `O=C(/C=C/c1cccc([N+](=O)[O-])c1)N1CCOCC1`, -3.86%; in that of `Cc1ccccc1Oc1nc2c(C)cccn2c(=O)c1/C=C(\C#N)C(=O)Nc1c(C)n(C)n(-c2ccccc2)c1=O`, -1.62%. On to `Cc1cnc(NC(=O)C2CCCC2)s1`, for which the “hERG current change (%, negative = inhibition) at 10uM” value stood at 23.2%. Regarding `COc1ccc(C[C@](C)(N)C(=O)O)cc1OC.Cl`, the “hERG current change (%, negative = inhibition) at 10uM” value was determined as 7.36%. Regarding `O=C(Cc1ccccc1)Nc1c2c(nn1-c1cccc(Cl)c1)CS(=O)(=O)C2`, the “hERG current change (%, negative = inhibition) at 10uM” value was -76.2%. In the case of `Cc1ccc(C)c(S(=O)(=O)NCCCN2CCOCC2)c1` it was 10.6%; in that of `Nc1cc2nc3ccccc3oc-2cc1=O`, 3.38%; in that of `COc1ccc([C@H]2CC(=O)C=C(c3ccc(C)c([N+](=O)[O-])c3)C2)cc1`, 21.2%. In the case of `Cc1ccc(C(=O)N2CCCC(C(=O)Nc3cccc(-c4ccc(F)cc4)c3)C2)cn1` (stereo not shown) it was -29.1%; in that of `COc1ccc(OC)c(NC(=O)CCNS(=O)(=O)c2cccc3nsnc23)c1`, -5.2%.

Regarding `COc1ccc(C2C(C#N)=C(N)Oc3cc(C)n(CCN4CCOCC4)c(=O)c32)cc1OC` (stereo not shown), the “hERG current change (%, negative = inhibition) at 10uM” value is listed as 14.6%.

For the molecule `O=C(Nc1c(C(=O)N2CCOCC2)cnn1-c1ccccc1)c1ccc([N+](=O)[O-])cc1`, the “hERG current change (%, negative = inhibition) at 10uM” value was -16%. In the case of `O=C(CSc1nnc2ccccn12)NC(=O)c1ccccc1` it was -0.549%; in that of `CC(Sc1nc(-c2ccccc2)cc(C(F)(F)F)n1)C(=O)N1CCOCC1` (stereo not shown), -3.84%; in that of `CC(=O)Nc1nc2c(F)cccc2s1`, 4.78%. As to `COC(=O)c1ccc(COc2ccc(C#N)cc2)o1`, the “hERG current change (%, negative = inhibition) at 10uM” value was determined as 4.61%.

The values above are taken from PMC4336329 (PLoS ONE, 2015).
